Measurements published in PMC6236770.
These are yes or no findings as the source states them, for the method shown. Binding seen in cells or lysates may run through a third protein. Some binding calls cover weakened binding; strength is not graded here. Where a sequence is shown, tags or fusion partners need not be part of it.

What was measured:
[1] = biological target: T1, GsiD fused to a GFP fragment (pC-gsiD, pMRBAD-link-CGFP) (E. coli) (UniProt P75799); test: split reporter; GFP fragments reassembly in E. coli BL21(DE3); M9 medium plate with MgSO4 replaced by MgCl2 and reduced glutathione (1 mM) as only sulfur source; fluorescence under UV light
T1 sequence: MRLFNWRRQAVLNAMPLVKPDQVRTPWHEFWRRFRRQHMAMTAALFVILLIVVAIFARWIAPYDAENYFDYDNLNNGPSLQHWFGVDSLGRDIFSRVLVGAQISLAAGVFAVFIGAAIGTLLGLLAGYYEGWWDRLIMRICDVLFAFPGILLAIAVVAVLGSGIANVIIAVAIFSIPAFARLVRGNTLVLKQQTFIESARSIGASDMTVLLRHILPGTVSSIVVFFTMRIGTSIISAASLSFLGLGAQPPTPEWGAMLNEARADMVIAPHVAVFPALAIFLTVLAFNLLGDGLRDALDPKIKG

[2] = biological target: T2, GsiA fused to a GFP fragment (pC-gsiA, pMRBAD-link-CGFP) (E. coli) (UniProt P75796); test: as above
T2 sequence: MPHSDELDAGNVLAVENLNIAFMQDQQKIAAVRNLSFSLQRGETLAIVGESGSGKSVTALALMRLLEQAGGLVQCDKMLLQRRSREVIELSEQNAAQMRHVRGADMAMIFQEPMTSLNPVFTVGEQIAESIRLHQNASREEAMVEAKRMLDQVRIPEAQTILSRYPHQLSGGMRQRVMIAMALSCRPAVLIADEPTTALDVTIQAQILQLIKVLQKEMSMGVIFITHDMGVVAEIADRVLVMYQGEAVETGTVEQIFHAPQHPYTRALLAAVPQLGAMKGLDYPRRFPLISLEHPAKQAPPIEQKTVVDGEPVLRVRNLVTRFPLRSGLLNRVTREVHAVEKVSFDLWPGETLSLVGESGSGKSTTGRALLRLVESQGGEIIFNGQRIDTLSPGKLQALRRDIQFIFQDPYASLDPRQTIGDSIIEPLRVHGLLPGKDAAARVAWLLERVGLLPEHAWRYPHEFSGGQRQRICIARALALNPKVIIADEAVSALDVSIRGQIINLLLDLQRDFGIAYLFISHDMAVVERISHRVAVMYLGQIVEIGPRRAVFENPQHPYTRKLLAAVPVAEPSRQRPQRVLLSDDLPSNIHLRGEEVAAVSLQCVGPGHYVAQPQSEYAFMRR

[3] = biological target: T3, GsiC fused to a GFP fragment (pC-gsiC, pMRBAD-link-CGFP) (E. coli) (UniProt P75798); test: as above
T3 sequence: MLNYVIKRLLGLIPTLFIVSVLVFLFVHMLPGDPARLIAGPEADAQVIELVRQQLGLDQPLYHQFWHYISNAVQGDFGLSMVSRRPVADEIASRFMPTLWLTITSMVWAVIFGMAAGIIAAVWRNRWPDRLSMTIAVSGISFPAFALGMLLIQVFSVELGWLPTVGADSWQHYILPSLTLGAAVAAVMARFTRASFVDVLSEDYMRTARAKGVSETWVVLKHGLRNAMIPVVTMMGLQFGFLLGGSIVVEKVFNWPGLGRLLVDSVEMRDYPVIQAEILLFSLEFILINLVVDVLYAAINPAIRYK

[4] = biological target: T1, GsiD fused to a GFP fragment (pC-gsiD, pMRBAD-link-CGFP) (E. coli); test: split reporter; GFP fragments reassembly in E. coli BL21(DE3) co-transformed with pET11a-link-NGFP and pMRBAD-link-CGFP constructs; LB plate (no glutathione added), 0.2% arabinose and 10 uM IPTG, 20°C for 2 days; fluorescence under UV light
[5] = biological target: T2, GsiA fused to a GFP fragment (pC-gsiA, pMRBAD-link-CGFP) (E. coli); test: as above
[6] = biological target: T3, GsiC fused to a GFP fragment (pC-gsiC, pMRBAD-link-CGFP) (E. coli); test: as above

binding [1]: binds | binding [2]: no binding | binding [3]: binds | binding [5]: no binding
B1: GsiB fused to a GFP fragment (pN-gsiB, pET11a-link-NGFP) (protein, UniProt P75797 27-512)
chain: AKDVVVAVGSNFTTLDPYDANDTLSQAVAKSFYQGLFGLDKEMKLKNVLAESYTVSDDGITYTVKLREGIKFQDGTDFNAAAVKANLDRASDPANHLKRYNLYKNIAKTEAIDPTTVKITLKQPFSAFINILAHPATAMISPAALEKYGKEIGFYPVGTGPYELDTWNQTDFVKVKKFAGYWQPGLPKLDSITWRPVADNNTRAAMLQTGEAQFAFPIPYEQATLLEKNKNIELMASPSIMQRYISMNVTQKPFDNPKVREALNYAINRPALVKVAFAGYATPATGVVPPSIAYAQSYKPWPYDPVKARELLKEAGYPNGFSTTLWSSHNHSTAQKVLQFTQQQLAQVGIKAQVTAMDAGQRAAEVEGKGQKESGVRMFYTGWSASTGEADWALSPLFASQNWPPTLFNTAFYSNKQVDDFLAQALKTNDPAEKTRLYKAAQDIIWQESPWIPLVVEKLVSAHSKNLTGFWIMPDTGFSFEDADLQ
binding [4]: no binding (condition: on LB plate, without glutathione) | binding [6]: no binding (condition: on LB plate, without glutathione)
